Laboratory results as given in PubChem BioAssay (EPA / NIEHS).
Not every entry of the source has a single result; some have several. The list is limited to them. The calls were made as follows: active = hit-call score of the fitted dose curve at least 0.9, where 1 is the maximum; inactive = score below 0.9. The source may hold further records. The values listed for one entry are repeats (runs, samples, wells, individuals or studies). Counts like (3×) stand for listed records that agree. More than one record can exist for a structure, and the calls need not agree.

Assays:
[1] = read-out: Macrophage colony-stimulating factor (MCSF), CSF1 (gene 1435); assay: BSK_LPS_MCSF: BioMAP Diversity Plus: LPS Assay for Macrophage colony-stimulating factor (MCSF) Biomarker Activity (AID 2283083); details: actives raise or lower the signal; primary human HUVEC with PBMC
Outline: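 Bidirectional fit versus DMSO of ELISA-measured M-CSF in co-cultured human umbilical vein endothelial cells and PBMC, sampled 24 h after dosing.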

[2] = read-out: Tissue Factor, F3 (gene 2152); assay: BSK_LPS_TissueFactor: BioMAP Diversity Plus: LPS Assay for Tissue Factor Biomarker Activity (AID 2283084); details: actives raise or lower the signal; primary human HUVEC with PBMC
Outline: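 Read-out: CD142 ELISA, 24 h. System: LPS-driven human endothelial/PBMC co-culture. Analysis: up- or down-signal fitted against DMSO.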

[3] = read-out: Vascular cell adhesion molecule 1 (VCAM1), VCAM1 (gene 7412); assay: BSK_LPS_VCAM1: BioMAP Diversity Plus: LPS Assay for Vascular cell adhesion molecule 1 (VCAM1) Biomarker Activity (AID 2283086); details: actives raise or lower the signal; primary human HUVEC with PBMC
Outline: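 Human umbilical vein endothelial cells co-cultured with peripheral blood mononuclear cells under LPS stimulation were exposed to test chemical for 24 h. VCAM-1 levels were then measured by ELISA, with bidirectional curve fitting relative to DMSO as negative control and baseline.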

[4] = read-out: CD38, CD38 (gene 952); assay: BSK_SAg_CD38: BioMAP Diversity Plus: SAg Assay for CD38 Biomarker Activity (AID 2283087); details: actives raise or lower the signal; primary human HUVEC with PBMC
Outline: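 Fluorescence ELISA of cell-surface CD38 served as the read-out, with either increase or decrease fitted against DMSO controls. Cells were a human umbilical vein endothelium plus PBMC co-culture under SEB/TSST-1 stimulation, measured 24 h after dosing.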

[5] = read-out: CD40, CD40 (gene 958); assay: BSK_SAg_CD40: BioMAP Diversity Plus: SAg Assay for CD40 Biomarker Activity (AID 2283088); details: actives raise or lower the signal; primary human HUVEC with PBMC
Outline: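 Endpoint derived by fitting increases or decreases versus DMSO controls. CD40 is detected by fluorescence ELISA in a human vascular co-culture of endothelium and PBMC at 24 h.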

[6] = read-out: CD69, CD69 (gene 969); assay: BSK_SAg_CD69: BioMAP Diversity Plus: SAg Assay for CD69 Biomarker Activity (AID 2283089); details: actives raise or lower the signal; primary human HUVEC with PBMC;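 also: cell surface CD69 protein quantified by ELISA with fluorescence detection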
Outline: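 HUVEC co-cultured with PBMC were dosed with chemical, and CD69 was measured by ELISA with fluorescence read-out 24 h later. Bidirectional curve fitting used DMSO as negative control and activity baseline.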

[7] = read-out: Monocyte Chemoattractant Protein-1 (MCP1), CCL2 (gene 6347); assay: BSK_SAg_MCP1: BioMAP Diversity Plus: SAg Assay for Monocyte Chemoattractant Protein-1 (MCP1) Biomarker Activity (AID 2283090); details: actives raise or lower the signal; primary human HUVEC with PBMC
Outline: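 MCP-1 levels in the endothelial–PBMC SAg co-culture were quantified by ELISA at 24 h post-dosing; both increases and decreases versus DMSO scored. Cytotoxicity monitored by SRB total protein in parallel cultures.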

[8] = read-out: E-selectin (Homo sapiens) (UniProt P16581); assay: BSK_SAg_Eselectin: BioMAP Diversity Plus: SAg Assay for Eselectin Biomarker Activity (AID 2283091); details: actives raise or lower the signal; primary human HUVEC with PBMC
Outline: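 Endpoint values derive from bidirectional fitting relative to DMSO, using ELISA-measured E-selectin in a human vascular co-culture (umbilical vein endothelium plus PBMC) sampled 24 h after dosing.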

[9] = BSK_SAg_PBMCCytotoxicity: PBMC Cytotoxicity Assessment in the BioMAP Diversity Plus: SAg Assay (AID 2283093); details: primary human HUVEC with PBMC;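 also: PBMC superantigen activated with SEB plus TSST-1 one hour after compound addition; PBMC viability measured as Alamar Blue reduction fluorescence at 546/580 nm; fitted both ways against DMSO so a hit may be loss or gain of signal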
Outline: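 Human umbilical vein endothelial cells co-cultured with PBMC; PBMC (75,000/well) pre-treated with compound 1 h, then activated with SEB and TSST-1 (20 ng/mL final each) for 90 h. Alamar Blue added 6 h, fluorescence 546/580 nm; bidirectional fit versus DMSO.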

[10] = BSK_SAg_Proliferation: Cell Proliferation Assessment in the BioMAP Diversity Plus: SAg Assay (AID 2283095); details: primary human HUVEC with PBMC;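 also: relative cell number as total protein by SRB absorbance in sub-confluent culture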
Outline: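 Human umbilical vein endothelial cells co-cultured with peripheral blood mononuclear cells; total protein measured by sulforhodamine B staining (0.1% SRB after 10% TCA fixation), absorbance at 560 nm, at 96 h. Bidirectional fit against DMSO baseline.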

[11] = read-out: Secreted IgG (sIgG), gene 3500; assay: BSK_BT_sIgG: BioMAP Diversity Plus: BT Assay for Secreted IgG (sIgG) Biomarker Activity (AID 2284226); details: primary human B cells with PBMC
Outline: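 B cells co-cultured with PBMC were dosed with chemical and secreted IgG quantified by ELISA at 24 h. Activity was fitted in the positive direction relative to DMSO as negative control and baseline.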

[12] = read-out: Interleukin 6 (IL6), IL6 (gene 3569); assay: BSK_BT_xIL6: BioMAP Diversity Plus: BT Assay for Interleukin 6 (IL6) Biomarker Activity (AID 2284228); details: primary human B cells with PBMC
Outline: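 IL-6 secretion measured (Luminex xMAP) in human primary B cell + PBMC co-culture at 24 h of chemical exposure; DMSO served as negative control and activity baseline, with curves fitted for increase.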

[13] = read-out: Interleukin 17A (IL17A), IL17A (gene 3605); assay: BSK_BT_xIL17A: BioMAP Diversity Plus: BT Assay for Interleukin 17A (IL17A) Biomarker Activity (AID 2284229); details: primary human B cells with PBMC
Outline: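 Human primary B cells plus PBMC, treated 24 h with chemicals; supernatant IL-17A quantified on Luminex xMAP beads. Gain of signal over DMSO control scored as activity.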

[14] = read-out: Interleukin 17F (IL17F), IL17F (gene 112744); assay: BSK_BT_xIL17F: BioMAP Diversity Plus: BT Assay for Interleukin 17F (IL17F) Biomarker Activity (AID 2284243); details: primary human B cells with PBMC
Outline: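 Luminex readout of IL-17F secretion, 24 h; cells: human B cells with PBMC; positive-direction analysis, DMSO control.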

[15] = read-out: Actin alpha 1 (ACTA1), ACTA1 (gene 58); assay: BSK_MyoF_ACTA1: BioMAP Diversity Plus: MyoF Assay for Actin alpha 1 (ACTA1) Biomarker Activity (AID 2284244); details: primary human lung fibroblasts
Outline: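 Human lung fibroblasts (MyoF system) dosed with test chemical for 24 h; α-SMA measured by ELISA. Gain of signal fitted relative to DMSO negative control as baseline.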

[16] = read-out: Interleukin 2 (IL2), IL2 (gene 3558); assay: BSK_BT_xIL2: BioMAP Diversity Plus: BT Assay for Interleukin 2 (IL2) Biomarker Activity (AID 2284245); details: primary human B cells with PBMC
Outline: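 Human B cells co-cultured with PBMC, exposed to test chemical for 24 h. Secreted IL-2 quantified by Luminex xMAP bead immunoassay; activity fitted in the positive direction relative to DMSO vehicle baseline.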

[17] = read-out: Macrophage Inflammatory Protein-1 Alpha (MIP1a), CCL3 (gene 6348); assay: BSK_IMphg_MIP1a: BioMAP Diversity Plus: IMphg Assay for Macrophage Inflammatory Protein-1 Alpha (MIP1a) Biomarker Activity (AID 2284255); details: primary human endothelial cells with macrophages
Outline: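 Co-culture of human venular endothelial cells and macrophages exposed to compounds for 24 h; MIP-1a measured by ELISA relative to DMSO. Cytotoxicity assessed in parallel cultures by sulforhodamine B total-protein staining at 560 nm.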

[18] = read-out: Intercellular Adhesion Molecule 1 (ICAM1), ICAM1 (gene 3383); assay: BSK_BF4T_ICAM1: BioMAP Diversity Plus: BF4T Assay for Intercellular Adhesion Molecule 1 (ICAM1) Biomarker Activity (AID 2284260); details: primary human bronchial epithelial cells with fibroblasts
Outline: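 Co-culture of human bronchial epithelial cells and dermal fibroblasts exposed 24 h to chemical; cell-surface ICAM-1 quantified by ELISA. Parallel SRB total-protein staining assessed cytotoxicity; activity fitted relative to DMSO.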

[19] = read-out: KRT18 (gene 3875); assay: BSK_BF4T_Keratin818: BioMAP Diversity Plus: BF4T Assay for Keratin 818 Biomarker Activity (AID 2284266); details: primary human bronchial epithelial cells with fibroblasts
Outline: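 Co-culture of human bronchial epithelial cells and dermal fibroblasts, chemical exposure 24 h. Keratin 8/18 measured by ELISA; positive-direction fit vs DMSO. SRB total protein run in parallel cultures for cytotoxicity.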

[20] = read-out: Epidermal growth factor receptor (EGFR), EGFR (gene 1956); assay: BSK_BE3C_EGFR: BioMAP Diversity Plus: BE3C Assay for Epidermal growth factor receptor (EGFR) Biomarker Activity (AID 2284281); details: primary human bronchial epithelial cells
Outline: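 Primary human lung bronchial epithelial cells; compound, 24 h; EGFR measured by ELISA; positive-direction fit vs DMSO baseline.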

[21] = read-out: KRT18 (gene 3875); assay: BSK_BE3C_Keratin818: BioMAP Diversity Plus: BE3C Assay for Keratin 818 Biomarker Activity (AID 2284282); details: primary human bronchial epithelial cells
Outline: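 Human primary bronchial epithelial cells in the BE3C system were exposed to test chemical for 24 h, then Keratin 8/18 was quantified by ELISA. Activity was fitted in the positive direction against DMSO as negative control and baseline.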

[22] = read-out: Matrix Metallopeptidase 9 (MMP9), MMP9 (gene 4318); assay: BSK_BE3C_MMP9: BioMAP Diversity Plus: BE3C Assay for Matrix Metallopeptidase 9 (MMP9) Biomarker Activity (AID 2284283); details: primary human bronchial epithelial cells
Outline: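 Endpoint is the ELISA MMP-9 signal in human primary bronchial epithelial cultures taken 24 h after chemical dosing. DMSO serves as negative control and baseline, with gain-of-signal fitting.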

[23] = read-out: Plasminogen activator inhibitor-1 (PAI1), SERPINE1 (gene 5054); assay: BSK_CASM3C_PAI1: BioMAP Diversity Plus: CASM3C Assay for Plasminogen activator inhibitor-1 (PAI1) Biomarker Activity (AID 2284284); details: primary human coronary artery smooth muscle cells;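 also: PAI-1 protein level measured by ELISA 24 h after dosing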
[24] = read-out: CD40, CD40 (gene 958); assay: BSK_IMphg_CD40: BioMAP Diversity Plus: IMphg Assay for CD40 Biomarker Activity (AID 2284288); details: primary human endothelial cells with macrophages
Outline: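 Venular endothelial cells co-cultured with macrophages (human primary), CD40 measured by ELISA 24 h after dosing. Positive-direction fit vs DMSO baseline; cytotoxicity tracked by SRB total-protein staining in parallel cultures.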

UniProt P16581, sequence (P16581 whole entry, looked up): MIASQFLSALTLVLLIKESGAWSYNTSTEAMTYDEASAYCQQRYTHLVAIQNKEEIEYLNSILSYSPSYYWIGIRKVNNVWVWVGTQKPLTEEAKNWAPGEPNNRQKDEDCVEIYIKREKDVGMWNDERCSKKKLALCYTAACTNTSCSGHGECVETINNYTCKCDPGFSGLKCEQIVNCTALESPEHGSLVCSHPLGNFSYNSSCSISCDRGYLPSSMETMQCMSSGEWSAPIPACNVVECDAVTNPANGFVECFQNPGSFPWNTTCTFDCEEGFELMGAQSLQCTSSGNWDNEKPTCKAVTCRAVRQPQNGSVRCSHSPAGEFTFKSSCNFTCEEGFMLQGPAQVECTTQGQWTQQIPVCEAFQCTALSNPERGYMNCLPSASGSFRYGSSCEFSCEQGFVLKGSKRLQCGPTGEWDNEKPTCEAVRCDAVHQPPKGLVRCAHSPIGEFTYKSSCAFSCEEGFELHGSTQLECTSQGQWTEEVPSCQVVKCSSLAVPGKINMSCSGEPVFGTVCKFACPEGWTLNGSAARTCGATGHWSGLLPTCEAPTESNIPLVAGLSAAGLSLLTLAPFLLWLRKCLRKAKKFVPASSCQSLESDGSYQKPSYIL

In the case of FC(F)(I)C(F)(F)C(F)(F)C(F)(F)C(F)(F)C(F)(F)I, the AC50 [1] was “active: 10.9, 18, 14.6, 45.6, 58.7 µM [separate samples]”, the AC50 [2] was “active: 14.7, 18.8, 44.8 (2×), 38.3 µM [separate samples]” and the AC50 [3] was “active: 16.3, 23.3, 18.4, 49.7, 47.1 µM [separate samples]”. For the same molecule, the AC50 [4] was “active: 9.8, 17.6, 10.9, 54.6, 53.1 µM [separate samples]”, the AC50 [5] was “active: 15.8, 11.6, 9.61, 55, 49.7 µM [separate samples]” and the AC50 [6] was “active: 14, 19.8, 9.28, 49.2, 49.7 µM [separate samples]”. The AC50 [7] was “active: 16.1, 18.7, 16.3, 48.9, 49.6 µM [separate samples]”, the AC50 [8] was “active: 9.78, 14.2, 17.7, 51, 52.1 µM [separate samples]” and the AC50 [9] was “active: 15.6, 11.4, 16.1, 42.9, 42.3 µM [separate samples]”. The AC50 [10] was “active: 10.3, 9.84, 10.7, 37.8, 23.3 µM [separate samples]”, the AC50 [11] was “active: 14.6, 14.2, 14.7, 24.3, 44.6 µM [separate samples]” and the AC50 [12] was “active: 16.4, 16, 17.5, 45.9, 49.1 µM [separate samples]”. The AC50 [13] was “active: 13.1, 11.7, 16.1, 44.5, 36.3 µM [separate samples]”, the AC50 [14] was “active: 13.9, 8.41, 10.2, 21.8, 33.6 µM [separate samples]” and the AC50 [15] was “active: 2.21 µM, 885 nM, 2.02 µM, 3.65 µM, 2.66 µM [separate samples]”. For the same molecule, the AC50 [16] was “active: 12.9, 16 (2×), 40.7, 48.3 µM [separate samples]”, the AC50 [17] was “active: 47.3 (2×), 54.9, 50.3, 15.5 µM [separate samples]” and the AC50 [18] was “active: 10.5, 7.91, 7.38, 19.9, 24.7 µM [separate samples]”. For the same molecule, the AC50 [19] was “active: 8.26, 8.16, 8.14, 45.7, 44.3 µM [separate samples]”, the AC50 [20] was “active: 7.62, 8.26, 8.03, 34, 30 µM [separate samples]” and the AC50 [21] was “active: 8.51, 16, 14.1, 42.5, 30 µM [separate samples]”. The AC50 [22] was “active: 9.05, 14.3, 9.97, 39.5, 30 µM [separate samples]”, the AC50 [23] was “active: 19.1, 20.6, 10.2, 24.8, 41.6 µM [separate samples]” and the AC50 [24] was “active: 28.8, 44.3, 9.53, 28.2 µM [separate samples]”.
